This note sets out measurements from a collection of fitness landscapes (doi:10.1016/j.celrep.2020.107928).

The labels stand for the following.
B1: Caulobacter ParB omega fusion; a variant is named by its letters at X, in order, B8GW30 (parent)
chain: MESVVVGEPGMSEGRRGLGRGLSALLGEVDAAPAQAPGEQLGGSREAPIEILQRNPDQPRRTFREEDLEDLSNSIREKGVLQPILVRPSPDTAGEYQIVAGERAWRAAQRAGLKTVPIMVRELDDLAVLEIGIIENVQRADLNVLEEALSYKVLMEKFERTQENIAQTIGKSXSHVANXMRLLXLPDEVQSYLVSGELTAXHARAIAAAADPVALAKQIIEGGLSVRETEALARKAPNLSAGKSKGGRPPRVKDTDTQALESDLSSVLGLDVSIDHRGSTGTLTITYATLEQLDDLCNRLTRGI

Over roughly 81,000 sequences, “one-hybrid fitness for binding NBS DNA” has its median near -0.1; the highest 2% begin near 0.36. The list shows a part of the results. Bounds are passed on as bounds.

Variants of B1 are the subject of this assay. The assay can be described thus: one-hybrid fitness for binding NBS DNA (the Noc-binding site; scaled: cognate 1, non-cognate 0); higher = stronger binding. As to conditions: with NBS DNA site. The method, boiled down: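 Fitness is the rescaled log change in variant-to-wild-type read ratio, measured by Illumina sequencing of plasmids before and after bacterial one-hybrid selection. The scale puts cognate at 1 and non-cognate at 0. Selection of Caulobacter ParB libraries, four specificity codons randomised, took place in E. coli USO with a HIS3 reporter, site 19 bp from the promoter, over 48 hours at 37°C on M9-minus-histidine with 0.1 mM IPTG and 5 mM 3-AT.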
As for CAAT, the “one-hybrid fitness for binding NBS DNA” value was at most 0.2.

As to QTTV, the “one-hybrid fitness for binding NBS DNA” value worked out at 0.246.

As for QKHS, the “one-hybrid fitness for binding NBS DNA” value stood at 0.494.

For the variant AMVL, the “one-hybrid fitness for binding NBS DNA” value is at most 0.2.

As for RSFM, the “one-hybrid fitness for binding NBS DNA” value was at most 0.2.

On to NMFG, for which the “one-hybrid fitness for binding NBS DNA” value is at most 0.2.

Consider SVGT, for which the “one-hybrid fitness for binding NBS DNA” value was at most 0.2.

As for TGMT, the “one-hybrid fitness for binding NBS DNA” value is at most 0.2.

HRMR: the “one-hybrid fitness for binding NBS DNA” value was at most 0.2.

For the variant EHNS, the “one-hybrid fitness for binding NBS DNA” value was at most 0.2.

As for PQLA, the “one-hybrid fitness for binding NBS DNA” value is at most 0.2.

Regarding RFWY, the “one-hybrid fitness for binding NBS DNA” value was at most 0.2.

With VFRY, the “one-hybrid fitness for binding NBS DNA” value was at most 0.2.

EHHS: the “one-hybrid fitness for binding NBS DNA” value is at most 0.2.

Turning to GVRP, the “one-hybrid fitness for binding NBS DNA” value was at most 0.2.

With RHEY, the “one-hybrid fitness for binding NBS DNA” value is at most 0.2.

AARF: the “one-hybrid fitness for binding NBS DNA” value was at most 0.2.

For KRVY, the “one-hybrid fitness for binding NBS DNA” value is at most 0.2.

Regarding AHHG, the “one-hybrid fitness for binding NBS DNA” value is at most 0.2.

Turning to ALVY, the “one-hybrid fitness for binding NBS DNA” value was at most 0.2.

As for NNDM, the “one-hybrid fitness for binding NBS DNA” value is at most 0.2.

On to AYSS, for which the “one-hybrid fitness for binding NBS DNA” value is at most 0.2.

Take RKND: the “one-hybrid fitness for binding NBS DNA” value is at most 0.2.

In the case of YWVR, the “one-hybrid fitness for binding NBS DNA” value was at most 0.2.

With YLKG, the “one-hybrid fitness for binding NBS DNA” value is at most 0.2.

For the variant LRKR, the “one-hybrid fitness for binding NBS DNA” value was 0.452.

Turning to LKKP, the “one-hybrid fitness for binding NBS DNA” value is at most 0.2.

Turning to QEKW, the “one-hybrid fitness for binding NBS DNA” value is at most 0.2.

As to ISVT, the “one-hybrid fitness for binding NBS DNA” value is at most 0.2.

As to SYAN, the “one-hybrid fitness for binding NBS DNA” value was at most 0.2.

As for GYPH, the “one-hybrid fitness for binding NBS DNA” value is at most 0.2.

Take CMGR: the “one-hybrid fitness for binding NBS DNA” value is at most 0.2.

CAHE: the “one-hybrid fitness for binding NBS DNA” value is at most 0.2.

In the case of QYVP, the “one-hybrid fitness for binding NBS DNA” value is at most 0.2.

Turning to SNRW, the “one-hybrid fitness for binding NBS DNA” value was at most 0.2.

For EMVS, the “one-hybrid fitness for binding NBS DNA” value was at most 0.2.

In the case of RNDN, the “one-hybrid fitness for binding NBS DNA” value is at most 0.2.

IVQR: the “one-hybrid fitness for binding NBS DNA” value is at most 0.2.

As for QCHQ, the “one-hybrid fitness for binding NBS DNA” value was determined as 0.269.

Regarding SQKS, the “one-hybrid fitness for binding NBS DNA” value is at most 0.2.

On to DEPR, for which the “one-hybrid fitness for binding NBS DNA” value was at most 0.2.

As to RYCD, the “one-hybrid fitness for binding NBS DNA” value is at most 0.2.

For the variant YPSI, the “one-hybrid fitness for binding NBS DNA” value was at most 0.2.

Take DLLF: the “one-hybrid fitness for binding NBS DNA” value is at most 0.2.

Take TCAN: the “one-hybrid fitness for binding NBS DNA” value is at most 0.2.

Consider FHNR, for which the “one-hybrid fitness for binding NBS DNA” value is at most 0.2.

With SSRN, the “one-hybrid fitness for binding NBS DNA” value was at most 0.2.

In the case of RFRI, the “one-hybrid fitness for binding NBS DNA” value is at most 0.2.

VLYF: the “one-hybrid fitness for binding NBS DNA” value is at most 0.2.

Take THVD: the “one-hybrid fitness for binding NBS DNA” value is at most 0.2.

TVHL: the “one-hybrid fitness for binding NBS DNA” value was at most 0.2.

Take PVPV: the “one-hybrid fitness for binding NBS DNA” value is at most 0.2.

For the variant NSPK, the “one-hybrid fitness for binding NBS DNA” value is at most 0.2.

Turning to DHNW, the “one-hybrid fitness for binding NBS DNA” value is at most 0.2.

Take QSRV: the “one-hybrid fitness for binding NBS DNA” value came out at 0.396.

Regarding SDAM, the “one-hybrid fitness for binding NBS DNA” value is at most 0.2.

Regarding QYMR, the “one-hybrid fitness for binding NBS DNA” value stood at 0.482.

EGTT: the “one-hybrid fitness for binding NBS DNA” value was at most 0.2.

On to VHME, for which the “one-hybrid fitness for binding NBS DNA” value is at most 0.2.

PIAV: the “one-hybrid fitness for binding NBS DNA” value is at most 0.2.

For INCV, the “one-hybrid fitness for binding NBS DNA” value is at most 0.2.

RNLL: the “one-hybrid fitness for binding NBS DNA” value is at most 0.2.

For HQWA, the “one-hybrid fitness for binding NBS DNA” value is at most 0.2.

For the variant LYWT, the “one-hybrid fitness for binding NBS DNA” value was at most 0.2.

As for VSNG, the “one-hybrid fitness for binding NBS DNA” value is at most 0.2.

RCHE: the “one-hybrid fitness for binding NBS DNA” value is at most 0.2.

As for RTEQ, the “one-hybrid fitness for binding NBS DNA” value was at most 0.2.

YEES: the “one-hybrid fitness for binding NBS DNA” value is at most 0.2.

As for AGEC, the “one-hybrid fitness for binding NBS DNA” value was at most 0.2.

As for YQRL, the “one-hybrid fitness for binding NBS DNA” value is at most 0.2.

In the case of TPHM, the “one-hybrid fitness for binding NBS DNA” value is at most 0.2.

In the case of PYER, the “one-hybrid fitness for binding NBS DNA” value was at most 0.2.

Regarding LPSE, the “one-hybrid fitness for binding NBS DNA” value is at most 0.2.

With DSWA, the “one-hybrid fitness for binding NBS DNA” value was at most 0.2.

With RLPD, the “one-hybrid fitness for binding NBS DNA” value is at most 0.2.

Turning to QATW, the “one-hybrid fitness for binding NBS DNA” value was at most 0.2.
